The whole screen tested about 310,000 compounds, of which about 14,000 (4.5%) showed an effect of 50% or more. The effect is printed as a negative number. The list shows a part of the results.
What follows are molecules tested against human ether-à-go-go-related gene (hERG) potassium channel (human, UniProt Q12809) (assay: primary screen, population patch clamp on CHO cells stably expressing hERG).
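Note: peak tail current of the secondary pulse compared with the same well before compound.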

Sequence of human ether-à-go-go-related gene (hERG) potassium channel (Q12809 whole entry, looked up): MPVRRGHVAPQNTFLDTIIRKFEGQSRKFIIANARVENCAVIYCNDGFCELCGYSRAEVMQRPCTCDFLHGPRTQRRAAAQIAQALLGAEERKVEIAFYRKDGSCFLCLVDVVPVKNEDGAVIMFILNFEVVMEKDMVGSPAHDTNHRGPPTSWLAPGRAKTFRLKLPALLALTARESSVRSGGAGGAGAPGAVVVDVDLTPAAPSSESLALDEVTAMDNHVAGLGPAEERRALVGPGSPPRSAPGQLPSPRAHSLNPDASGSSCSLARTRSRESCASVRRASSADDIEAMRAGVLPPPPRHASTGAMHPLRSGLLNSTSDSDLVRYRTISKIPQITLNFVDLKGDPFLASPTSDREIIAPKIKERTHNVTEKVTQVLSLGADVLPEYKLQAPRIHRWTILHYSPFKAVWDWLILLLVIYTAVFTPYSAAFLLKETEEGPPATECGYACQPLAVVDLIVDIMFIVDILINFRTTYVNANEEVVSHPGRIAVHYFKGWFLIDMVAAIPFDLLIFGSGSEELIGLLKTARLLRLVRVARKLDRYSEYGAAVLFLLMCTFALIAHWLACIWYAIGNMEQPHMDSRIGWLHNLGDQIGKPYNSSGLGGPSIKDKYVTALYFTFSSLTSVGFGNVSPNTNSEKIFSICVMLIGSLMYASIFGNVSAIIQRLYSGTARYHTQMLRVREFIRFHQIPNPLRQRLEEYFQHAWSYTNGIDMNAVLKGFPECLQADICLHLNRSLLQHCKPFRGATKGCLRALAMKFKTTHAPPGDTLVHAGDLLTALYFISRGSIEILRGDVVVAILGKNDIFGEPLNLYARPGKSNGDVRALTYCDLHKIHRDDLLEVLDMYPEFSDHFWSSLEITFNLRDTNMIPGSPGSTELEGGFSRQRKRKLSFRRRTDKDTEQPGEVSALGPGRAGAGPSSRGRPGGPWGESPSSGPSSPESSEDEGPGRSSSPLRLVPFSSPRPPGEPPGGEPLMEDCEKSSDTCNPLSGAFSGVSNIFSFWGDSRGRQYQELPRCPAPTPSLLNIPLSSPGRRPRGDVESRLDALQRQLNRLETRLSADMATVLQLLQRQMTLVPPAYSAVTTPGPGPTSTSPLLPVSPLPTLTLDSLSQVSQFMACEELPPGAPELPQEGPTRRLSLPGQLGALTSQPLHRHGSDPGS

Row | SMILES | hERG current change (%, negative = inhibition) at 10uM
1 | O=C(COC(=O)/C=C/c1ccccc1)NC1CC1 | -5.83%
2 | Cc1cccc(-c2noc(-c3ccc(F)cc3)n2)c1 | 15.1%
3 | COc1ccc(N2CCN(Cc3cc(=O)oc4cc(C)c(Cl)cc34)CC2)cc1 | 8.44%
4 | O=C(c1ccc2c(c1)N(Cc1ccc(F)cc1)CCS2)N1CCC2(CC1)OCCO2 | -57.1%
5 | CC(=O)N/N=C\c1cccc(OC/C=C/c2ccccc2)c1 | 5.97%
6 | COc1ccc(-c2cnc[nH]2)cc1 | 21.3%
7 | COc1ccc(N(Cc2cc3ccccc3[nH]c2=O)S(C)(=O)=O)cc1 | 1.34%
8 | Cc1c(C)c2c(OCC(=O)N[C@@H](C(=O)O)c3ccccc3)cc3c(c2oc1=O)CCC(C)(C)O3 | 11.9%
9 | O=C(CSc1nc(C2CC2)nc2ccccc12)Nc1cccc(O)c1 | 6.6%
10 | COc1ccccc1OC1=NS(=O)(=O)c2ccccc21 | -1.69%
11 | COC(=O)C1=C(O)/C(=C\c2ccc(CNC(=O)C(=O)Nc3ccc(C)c(C)c3)o2)N=C1C | -17.8%
12 | COc1ccc(S(=O)(=O)NC2CC(=O)N(c3ccc4c(c3)OCCO4)C2)cc1 (stereo not drawn) | 1.11%
13 | Cc1ccccc1NC(=O)CCNS(=O)(=O)c1cccc2nsnc12 | 5.97%
14 | Cn1nc(-c2ccccc2)c(/C=N/O)c1Cl | 12%
15 | Cc1ccc(-c2cc(C(F)(F)F)c(C#N)c(=O)[nH]2)cc1 | -3.06%
16 | CN(CC(=O)Nc1cccc(F)c1)C(=O)CCCc1cccs1 | -7.24%
17 | CCOC(=O)C1=C(O)/C(=C/c2cccc(OC)c2O)N=C1C | 8.18%
18 | Cc1ccc(N/N=C(\C#N)C(=N)N2CCCCC2)cc1 | -47.7%
19 | NC(N)=NC(N)=Nc1ccccc1 | 15.4%
20 | O=C(Nc1cnccn1)C1c2ccccc2Oc2ccccc21 | -5.02%
21 | O=C(NCc1ccco1)C(=O)c1cn(CC(=O)N2CCCC2)c2ccccc12 | -21.4%
22 | O=C1CCCc2c1nc(-c1ccc(F)cc1)n2O | 12%

Row | SMILES | hERG current change (%, negative = inhibition) at 10uM
23 | COc1ccc(C)cc1NC(=O)CSc1ccc(-c2ccccn2)nn1 | 8.2%
24 | Cc1ccc(N2C(=O)SC(N(CC(=O)O)c3cccc(C)c3)C2=O)cc1 (stereo not drawn) | -0.0799%
25 | O=C(O)c1cccc(S(=O)(=O)N(Cc2ccccc2)c2ccc(Cl)cc2)c1 | 14%
26 | CCCNCc1cc(Cl)c(OCC)c(Cl)c1.Cl | 13.8%
27 | O=C(NCCCN1CCN(Cc2ccccc2Cl)CC1)Nc1ccccc1 | -56.8%
28 | COc1ccc(-c2cn(Cc3cccc(OC)c3)nn2)cc1 | -0.524%
29 | Cc1cccc(C(=O)NNC(=O)C(=O)NC(C)(C)C)c1 | 2.04%
30 | CCCNc1nc(Nc2ccc(C)c(Cl)c2)c2cnn(C)c2n1 | 17.8%
31 | O=C(CSc1nc2ccccc2s1)NNC(=O)Nc1ccc(Cl)c(Cl)c1 | 7.58%
32 | COc1cc(CCCN2CCNC[C@@H]2Cc2ccccc2)cc(OC)c1OC | 4.5%
33 | Cc1c([N+](=O)[O-])cc(C(=O)Oc2ccc(Br)cc2C(=S)N2CCCCC2)cc1[N+](=O)[O-] | 34.7%
34 | Cc1cccc(NC(=O)CCNS(=O)(=O)c2cccc3nsnc23)c1 | 5.49%
35 | NC1=NC[C@H](CC2CCCCC2)N1CCc1cc(C(F)(F)F)cc(C(F)(F)F)c1 | -15.1%
36 | COc1ccc(NC(=O)C2C3C=CC4(O3)C2C(=O)N(CCCN2CCCC(C)C2)C4C(=O)NC2CCCCC2)cc1 (stereo not drawn) | 18.6%
37 | Cc1nc(Nc2ccc3c(c2)OCCO3)c2nnn(Cc3ccccc3Cl)c2n1 | -6.92%
38 | COc1ccc(C(=O)NCC(=O)N2CCN(c3ccc(Cl)cc3)CC2)cc1 | 6.79%
39 | N#Cc1ccc(S(=O)(=O)N2CCN(c3ncccn3)CC2)cc1 | -17.9%
40 | CCCc1nc(NCc2ccccc2)c(C#N)c2c1CCCC2 | 10%
41 | CCOc1ccc(OCC)c(-c2c(=O)n(OCc3ccccc3Br)c3ccccc3[n+]2[O-])c1 | 1.92%
42 | COc1ccc(OC)c(NC(=O)c2cccc(S(=O)(=O)N(Cc3ccccc3)c3ccccc3OC)c2)c1 | 3.52%
43 | CN(C)C(CNC(=O)C1CCN(S(=O)(=O)c2ccccc2)CC1)c1ccccc1 (stereo not drawn) | -1.15%
44 | Cc1cc(CSc2ccccc2)ccc1NC(=O)c1ccc(Cl)c([N+](=O)[O-])c1 | 6.91%

Row | SMILES | hERG current change (%, negative = inhibition) at 10uM
45 | CCCN(CC(=O)Nc1ccccc1OC)C(=O)c1ccc(COc2ccccc2)o1 | -26.5%
46 | O=C(NCc1ccco1)Nc1ccccc1Cl | -5.31%
47 | COc1ccccc1N1CCN(c2cc(=O)n(-c3ccc(Cl)cc3)c(=O)[nH]2)CC1 | 19.8%
48 | CCC(=O)N1CCC2(CC1)Oc1ccc(Cl)cc1C(=O)C21CC(c2cccnc2)=NO1 (stereo not drawn) | -15.1%
49 | CCN(CC)S(=O)(=O)c1ccc(NC(=O)COC(=O)CNS(=O)(=O)/C=C/c2ccccc2)cc1 | -30%
50 | Cc1ccc(S(=O)(=O)N2CCN(C(=O)COC(=O)CCc3ccccc3)CC2)c(C)c1 | -8.38%
51 | CCC1CCCCN1CC(=O)c1c(C)[nH]c2cc(C)ccc12 (stereo not drawn) | -27.7%
52 | O=C(O)C1C2CCC(O2)C1C(=O)Nc1cccc(Cl)c1 (stereo not drawn) | -2.22%
53 | COc1ccccc1C(=O)N/N=C/c1c[nH]c2ccccc12 | 1.12%
54 | Cc1cc(C)cc(OCc2nnc(SCC(=O)Nc3ccccc3)o2)c1 | -6.76%
55 | COc1ccccc1NC(=O)CSc1nnc(-c2ccc(NC(C)=O)cc2)n1C | 8.64%
56 | O=C(COC(=O)c1cc([N+](=O)[O-])ccc1N1CCOCC1)Nc1ccc(Cl)cn1 | -61.5%
57 | N/C(=N\OC(=O)CCC1CCCC1)c1ccccn1 | -17.1%
58 | COc1ccc(/C=N/NC(=O)COc2cc(C)cc(C)c2)cc1COC(C)=O | -0.00242%
59 | Cc1cccc(C(=O)N2CCC(c3nc4ccccc4s3)CC2)c1 | -33.7%
60 | CCOC(=O)c1sc2nc(C)n(CC(=O)NCC3CCCO3)c(=O)c2c1C (stereo not drawn) | 0.179%
61 | CN1CCN(C(=O)c2ccc3c(c2)N(C)C(=O)/C(=C/c2cccc(Cl)c2)S3)CC1 | -55.1%
62 | O=C(COC(=O)CCS(=O)(=O)c1ccc(Cl)cc1)NC1CCCCC1 | -4.25%
63 | Nc1nnc(SCc2nc3scc(-c4ccccc4)c3c(=O)[nH]2)s1 | 6.26%
64 | CCN1CCN(C(CNS(=O)(=O)c2ccc(Cl)cc2)c2ccccc2)CC1 (stereo not drawn) | -69.5%
65 | c1ccc2c(NC3C4CC5CC(C4)CC3C5)nc(N3CCOCC3)nc2c1 (stereo not drawn) | -35.1%
66 | Cc1ccc(C(=O)N2CCN(c3ccccn3)CC2)cc1Cl | -3.65%

Row | SMILES | hERG current change (%, negative = inhibition) at 10uM
67 | CN(C)c1ccc(NC(=O)c2cccc(C(=O)Nc3ccc(N(C)C)cc3)n2)cc1 | -10.4%
68 | CNc1nc2c3ccccc3n(C(C)=O)c2s1 | 4.94%
69 | CC1CCC2(CC1)NC(CO)(CO)CO2 (stereo not drawn) | 7.16%
70 | CCc1ccc(NC(=O)COC(=O)/C=C/c2c(C)nn(C3CCS(=O)(=O)C3)c2Cl)cc1 (stereo not drawn) | 1.41%
71 | COc1ccccc1CNC(=O)C(=O)NCC1OCCN1C(=O)c1cccs1 (stereo not drawn) | 3.96%
72 | Cc1ccc(OCC(=O)N2CCCC(CCC(=O)N(C)CCc3ccccn3)C2)cc1 (stereo not drawn) | -9.48%
73 | O=C(NN1C(=O)NC2(CCCCC2)C1=O)c1ccc(Cl)c(Cl)c1 | -46.2%
74 | COc1ccc(C2c3c(oc4ccccc4c3=O)C(=O)N2c2ccc(C)cn2)cc1OC (stereo not drawn) | -17.5%
75 | CN1CCN(CCC(=O)Nc2cccc(F)c2)CC1 | -1.22%
76 | COC(=O)c1ccc(COC(=O)Cc2n[nH]c(=O)c3ccccc23)cc1 | -1.24%
77 | O=c1[nH]c(SCc2cccc(Cl)c2)nc2[nH]ncc12 | 12.6%
78 | O=C1c2ccccc2C(Nc2ccc3c(c2)OCCO3)N1Cc1ccc2c(c1)OCO2 (stereo not drawn) | -11.3%
79 | Nc1nc(Sc2c([N+](=O)[O-])cc(C(F)(F)F)cc2[N+](=O)[O-])n[nH]1 | 3.04%
80 | OCCCC1CCCCN1Cc1nc(Cc2ccccc2Cl)no1 (stereo not drawn) | -78.9%
81 | Cc1cc(C)cc(OCC(=O)N(Cc2ccco2)c2c(N)n(Cc3ccccc3)c(=O)[nH]c2=O)c1 | -5.98%
82 | COc1ccc(N2C(=O)C3ON(C4SC(=S)N(C)C4(C)C)C(c4ccc(Cl)cc4)C3C2=O)cc1 (stereo not drawn) | 0.115%
83 | CC1(C)CC2CC(C)(CN2/C=N/c2sc3c(c2C#N)CC(C)(C)NC3(C)C)C1 (stereo not drawn) | -20.9%
84 | O=[N+]([O-])c1ccc(S(=O)(=O)N/N=C/c2cccs2)cc1 | 14.9%
85 | c1ccc(Oc2nc3ccccc3n3cccc23)cc1 | 3.96%
86 | O=C(O)COCC(=O)Nc1ccc2c(c1)ncn2CCc1ccccc1 | 15.4%
87 | CCn1c(C)[n+](CC)c2ccc(S(=O)(=O)NC)cc21.[I-] | 19.5%
